The text below walks through data of PubChem BioAssay AID1346428 (National Center for Advancing Translational Sciences (NCATS), 2018).

SMILES strings stand for the structures. Several values for one entry are separate records, joined by “and”; a condition that tells them apart may be missing. Equal entries are not always repeated. Out of some 48,000 compounds screened, about 1,200 (2.5%) were called active. Inconclusive results (about 2%) are left out.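 Rule for the calls: active = activation of at least 60% and not above a set upper limit (about 1 call in 100 departs from these limits); inconclusive = activation of 40% to 60%, or above that upper limit; inactive = activation under 40%.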 The list shows a part of the results.

Sequence of UniProt O75388 (O75388 whole entry, looked up, the tested form may be a part): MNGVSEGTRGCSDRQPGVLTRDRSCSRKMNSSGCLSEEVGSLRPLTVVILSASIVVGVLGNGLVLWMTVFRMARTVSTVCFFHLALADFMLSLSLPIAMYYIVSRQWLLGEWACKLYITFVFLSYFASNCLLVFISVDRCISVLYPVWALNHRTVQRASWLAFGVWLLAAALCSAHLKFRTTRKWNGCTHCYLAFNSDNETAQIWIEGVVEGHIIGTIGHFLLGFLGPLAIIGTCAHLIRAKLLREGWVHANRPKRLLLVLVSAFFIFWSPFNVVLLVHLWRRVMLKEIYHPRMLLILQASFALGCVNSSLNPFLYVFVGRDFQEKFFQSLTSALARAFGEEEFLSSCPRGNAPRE

The target in this assay is Probable G-protein coupled receptor 32 (Homo sapiens) (UniProt O75388). As to the kind of experiment: qHTS for Agonists of Human Resolvin D1 Receptor DRV1. As to conditions: CHO-K1 GPR32 beta-arrestin PathHunter luminescence, 90 min; at 76.9 µM; active compounds read high; zero percent set by DMSO-only wells. The method, boiled down:
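PathHunter enzyme-fragment complementation, CHO-K1 GPR32 stable line; 2,500 cells/well, overnight attach; cpd 90 min 37 °C 5% CO2; detection reagent 1 h RT; chemiluminescence. DMSO = EC0.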
In general terms: In qHTS, concentration-response curves come from the screen itself.
Regarding `CCCOC(=O)c1c(NC(=O)C2c3ccccc3Oc3ccccc32)sc2c1CCCC2`, the activation is inactive: -5.04%.
For `COc1cccc(OCc2nc3ccccc3n2Cc2ccccc2C)c1` the value was inactive: -17.7%; for `COc1ccc(NC(=O)CCCSc2nc(-c3ccco3)cc(C(F)(F)F)n2)c(OC)c1`, inactive: -20.7%.
On to `COc1cc(NC(=O)Cn2nnc(-c3ccc(C(F)(F)F)cc3)n2)c(C(=O)O)cc1OC`, for which the activation is inactive: 0.083%.
For `CCOc1ccc(N(CC)C(=O)C2CCN(S(=O)(=O)c3cccc4nonc34)CC2)cc1` the value was inactive: 3.15%; for `COc1ccc(CCC(=O)NC2CC(=O)N(c3cccc(F)c3)C2)cc1` (configuration not stated), inactive: -14.2%.
Then `O=C(Cn1c(=O)oc2cc(S(=O)(=O)NCc3ccccc3)ccc21)Nc1ccc(F)c(Cl)c1`, with inactive: 21%.
Then `CCC(=O)n1nc(-c2cccnc2)nc1NCc1ccc(F)cc1`, with inactive: -7.58%; and `Cc1ccc(CN2CCSc3ccc(C(=O)NCCc4ccccc4)cc32)cc1`, with inactive: -21.2%; and `COc1ccc(Cl)cc1NC(=O)C1CCN(c2nnc(C)c3c(C)n(-c4ccccc4)nc23)CC1`, with inactive: -4.15%.
For `CCCCOc1ccc(C(C)NC(=O)c2cccc(Nc3nc4ccccc4n4nnnc34)c2)cc1` (configuration not stated), the activation is inactive: 23.8%.
Turning to `CCOc1ccc(CCNC(=O)CSc2n[nH]c(-c3ccccc3)n2)cc1OCC`, the activation was inactive: -6.08%.
In the case of `Cc1c(CC(=O)N2CCCCC2)c(=O)oc2c(C)c3occ(C(C)(C)C)c3cc12`, the activation was inactive: -14.8%.
Consider `Oc1ccccc1C=NCc1ccccc1`, for which the activation was inactive: -22.1%.
Then `CN(C)C=NC(=O)c1cc2c(n(-c3ccccc3)c1=O)CC(C)(C)CC2=O`, with inactive: 3.46%.
For `O=c1n(Cc2cccc(F)c2)c2ccccc2c2nc(-c3ccccc3)nn12` the value was inactive: 7.52%; for `CN(C)c1cc2c(cc1NS(=O)(=O)c1ccccc1)n(C)c(=O)n2C`, inactive: -11.8%; for `COc1cccc(CSc2nc3n(n2)C(c2cccc(F)c2)C(C(=O)Nc2ccccc2C)=C(C)N3)c1` (configuration not stated), inactive: 13.7%.
For `Cc1ccc(O)c(NC(=O)c2cc(-c3ccc4c(c3)OCO4)on2)c1` the value was inactive: -6.89%; for `COc1ccc(CN(C(=O)Nc2cccc(Cl)c2)c2ccccn2)cc1OC`, inactive: -33.1%.
Consider `Cc1cccc(N2CCN(C(=O)c3ccc(CS(=O)c4cccc(Cl)c4)o3)CC2)c1C` (configuration not stated), for which the activation was inactive: -8.76%.
Turning to `Cc1ccc(-c2[nH]c3ccccc3c2SCCNC(=O)c2ccc(S(=O)(=O)N(C)C)cc2)cc1`, the activation was inactive: -22%.
For `COc1ccc(CNC(=O)CCCN2C(=O)CSc3c2c(C)nn3-c2ccccc2)c(OC)c1` the value was inactive: 1.5%; for `COCCNC(=O)CCC(=O)N1Cc2cccc(OC)c2Oc2ncccc21`, inactive: -3.12%.
Regarding `CCSc1nnc2c(n1)OC(c1ccc(C)cc1)N(C(C)=O)c1ccccc1-2` (configuration not stated), the activation was inactive: -6.02%.
Then `COc1ccc(Cl)cc1NC(=O)CCS(=O)(=O)c1cccc2nonc12`, with inactive: -19.4%; and `Cc1ccc(NC(=O)C(=O)NCC(c2cccnc2)N2CCOCC2)cc1Cl` (configuration not stated), with inactive: 24.2%.
For `Cc1coc2c(C)c3oc(=O)c(CC(=O)NCCc4ccc(Cl)cc4)c(C)c3cc12`, the activation was inactive: -25.3%.
For `Cc1c(NC(=O)c2cc(=O)c3ccccc3o2)c(=O)n(-c2ccccc2)n1C` the value was inactive: -17.9%.
As to `COc1ccc(NC(=O)C2CCCN(S(=O)(=O)c3ccc4c(c3)oc(=O)n4C)C2)c(OC)c1` (configuration not stated), the activation is inactive: -0.112%.
For `Cc1cccc(CSc2nc(-c3cccs3)ccc2C#N)c1` the value was inactive: -7.59%; for `C=CCc1c(C)nc2nc(SCC(=O)Nc3ccc(C)c(C)c3)nn2c1C`, inactive: -13.5%.
Then `COCCCNC(=O)c1ccc(-n2c(-c3ccccc3)cc3c2CCC(C)C3)cc1` (configuration not stated), with inactive: -36.6%.
Then `COc1cccc(N2CCN(C(=O)c3cccn3-c3nnc(N4CCCC4)s3)CC2)c1`, with inactive: 2.78%; and `CN1CCC2(CCN3CCc4c(oc5ccccc45)C3C2)N(C)C1=O` (configuration not stated), with inactive: -8.2%; and `CCCCOc1ccc(S(=O)(=O)Nc2ccc(-c3ccc(N4CCC(C)CC4)nn3)cc2)cc1`, with inactive: -10.3%.
Turning to `COc1ccc(CCN2C(=O)c3oc4cc(C)cc(C)c4c(=O)c3C2c2ccccc2F)cc1OC` (configuration not stated), the activation was inactive: -1.33%.
`COc1ccc(S(=O)(=O)Nc2ccc(-c3cn4ccsc4n3)cc2)cc1C`: the activation is inactive: -5.45%.
Turning to `COc1cccc(-c2nnc(SCC(=O)NC3CCCCC3)o2)c1`, the activation is inactive: 0.0986%.
As to `O=C(O)COc1nn(Cc2ccccc2)c2ccccc12`, the activation was inactive: -6.04%.
In the case of `CCCn1c(=O)c2sccc2n2c(CCCC(=O)Nc3ccc(Oc4ccc(Cl)cc4)cc3)nnc12`, the activation was inactive: -8.97%.
For `Cc1ccc(NC(=O)c2ccc(CN3C(=O)CCn4nc(C)cc43)cc2)c(Cl)c1` the value was inactive: 40%; for `CC(=O)c1ccc(NS(=O)(=O)c2ccc(-c3cc(C)no3)s2)cc1`, inactive: -10.4%.
For `CCOc1ccc(CCNC(=O)C2CCN(C(=O)c3cc4sccc4n3CC)CC2)cc1OCC` the value was inactive: -1.76%; for `O=C(Nc1ccccc1C(F)(F)F)c1ccc2oc(=O)c(S(=O)(=O)c3ccc(F)cc3)cc2c1`, inactive: 5.98%; for `Cn1cc(C(=O)OCC2CCN(CCNS(C)(=O)=O)CC2)c2ccccc21`, inactive: 6.08%.
For the compound `COc1ccc(NC(=O)c2c(NC(=O)COc3ccccc3)sc3c2CCC(C)C3)cc1` (configuration not stated), the activation is inactive: 0.795%.
For `O=C(NCCC1=CCCCC1)c1ccc2c(=O)n3nc(Nc4ccccc4)sc3nc2c1` the value was inactive: -13.7%; for `Cc1ccc(NC(=O)CSc2nnc3[nH]c(=O)cc(-c4ccccc4)n23)cc1Cl`, inactive: -9.48%.
As to `COCCCNC(=O)c1cn(CCOC)c(=O)c2c1c1ccccc1n2C`, the activation is inactive: 1.87%.
Turning to `Cc1ccccc1CNC(=O)CN1C(=O)CSc2ccc(S(=O)(=O)N(C)C)cc21`, the activation was inactive: 8.98%.
Then `COc1ccc(-c2noc(CCC(=O)Nc3ccc(C(F)(F)F)cc3)n2)cc1`, with inactive: 13.4%; and `CC(=O)c1ccc(N2CCN(c3ncnc4c3nc3n4CCCC3)CC2)cc1`, with inactive: -5.93%.
Then `Cc1ccc(CSc2oc(-c3cccs3)nc2S(=O)(=O)c2ccccc2)cc1`, with inactive: -9.87%; and `COc1ccccc1N1CCN(c2ncc3c(n2)CCN(Cc2ccccc2F)C3)CC1`, with inactive: -2.61%.
Regarding `COc1ccc(CCNC(=O)Cc2c(C)c3c(cc(C)c4c(C)c(C)oc43)oc2=O)cc1`, the activation was inactive: -7.84%.
For `C#C[C@]1(O)CC[C@H]2[C@@H]3[C@H](C)CC4=C(CCC(=O)C4)[C@H]3CC[C@@]21C`, the activation was active: 98.6%.
As for `Cc1c(NC(=O)c2cc(-c3cccc(O)c3)on2)c(=O)n(-c2ccccc2)n1C`, the activation was inactive: 7.8%.
Then `Cc1ccc2ncc(C(=O)N3CCN(c4ccccc4F)CC3)c(=O)n2c1`, with inactive: -0.506%; and `CCOC(=O)N1CCc2c(sc3c2c(=O)n(Cc2ccccc2)c(=O)n3Cc2ccccc2Cl)C1`, with inactive: -4.06%.
Then `CCc1ccccc1NC(=O)N1CCc2c([nH]c3ccccc23)C1c1ccc(C)cc1` (configuration not stated), with inactive: -31.3%; and `COc1ccc(CCNC(=O)c2cnn(-c3ccc(F)cc3)c2C2CCN(C(=O)OC(C)(C)C)CC2)c(OC)c1`, with inactive: -17.3%; and `Cc1ccc(S(=O)(=O)N(CC(=O)NCCc2ccc(Cl)cc2)c2ccccc2C)cc1`, with inactive: 2.47%.
For `CCc1ccc(OCC(=O)N(Cc2ccc(C)o2)C2CCS(=O)(=O)C2)cc1` (configuration not stated) the value was inactive: -28.1%; for `COc1cccc(NC(=O)C2CCN(c3nnc(C)c4c(C)n(-c5ccccc5)nc34)CC2)c1`, inactive: -0.441%.
Regarding `Cc1ccc(OCC(=O)Nc2nc(-c3ccc(Br)cc3)ns2)cc1C`, the activation is inactive: -8.07%.
Then `COc1ccc(CNc2nc3ccccc3c3nc(-c4ccccc4)nn23)cc1`, with inactive: -9.05%; and `CC(=O)c1ccc(NC(=O)c2nc(-c3ccc(C)cc3)n3c2CCCCC3)cc1`, with inactive: -4.99%; and `Cc1ccccc1OCC(=O)Nc1ccc2nc(SCc3ccccc3)sc2c1`, with inactive: 9.22%.
Take `COc1ccc(-c2ccc(NS(=O)(=O)c3cccc(C)c3)cc2)nn1`: the activation is inactive: 2.47%.
For `COc1ccc(OCC(=O)NC2CC(=O)N(c3ccc4c(c3)OCCO4)C2)cc1` (configuration not stated) the value was inactive: -15.7%.
Then `CC(=O)OCC(=O)[C@@]1(O)CC[C@H]2[C@@H]3CCC4=CC(=O)C=C[C@]4(C)[C@@]3(F)[C@@H](O)C[C@@]21C`, with inactive: -4.96%; and `Cc1ccc(C)c(CN2C(=O)C3(c4ccccc42)N(c2ccc(Cl)cc2)C(=O)CS3(=O)=O)c1` (configuration not stated), with inactive: -6.23%.
For `COc1ccc(CCNC(=O)C2CCN(c3nc4ccccc4nc3C(F)(F)F)CC2)c(OC)c1` the value was inactive: 6.23%.
Turning to `CCc1ccc(NS(=O)(=O)c2c(C)nc3sc(CC)nn3c2=O)cc1`, the activation was inactive: 13.9%.
With `Cc1cccc(NC(=O)CSc2nc(-c3ccccc3Cl)nc3c2Cc2c(CO)cnc(C)c2O3)c1C`, the activation was inactive: -13.6%.
Then `COc1ccc(CCNc2nc3c(-c4cccc(F)c4)nnn3c3ccccc23)cc1OC`, with inactive: -2.43%; and `CC1CCN(c2nc3c(S(=O)(=O)c4ccc(Cl)cc4)nnn3c3ccsc23)CC1`, with inactive: 1%.
As for `CC(=O)N1c2ccccc2CC1C(=O)NCc1cccc(Cl)c1` (configuration not stated), the activation is inactive: 7.47%.
On to `CC(=O)OCC(=O)[C@@]1(O)CC[C@H]2[C@@H]3CCC4=CC(=O)CC[C@]4(C)[C@H]3C(=O)C[C@@]21C`, for which the activation was inactive: 10% and inactive: -1.61%.
For `COc1ccc(-c2cc(C)no2)cc1S(=O)(=O)N1CCN(c2ccccc2F)CC1` the value was inactive: -20.8%; for `CCOc1cccc(C2CC(=O)Nc3cc4c(cc32)OCCO4)c1` (configuration not stated), inactive: -6.15%.
